From the supplement of paper PMC11417369
Some of the results follow.

tested on: PfHDP1 homeodomain (GST-tagged); experiment: gcPBM binding intensity (ln(normalized median fluorescence intensity)); higher = stronger DNA binding
Outline: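 Using an Agilent 4 × 180k array, primer-extended double-stranded 36-bp intergenic genomic probes and negative controls were exposed for 1 h to GST-fused P. falciparum DNA-binding domains expressed in E. coli. Binding was carried out in 1× PBS with 1% milk, 0.2 mg/ml BSA, 0.5% salmon testes DNA and 0.03% Triton X-100, and protein was detected with Alexa488 anti-GST antibody and a 488 nm scan. Binding intensity is the highest Masliner-normalised natural-log median intensity across replicate spots of either probe orientation.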

Row | Sequence | gcPBM binding intensity (ln)
1 | TTCTTTATTATATGCACACGTACATATAATATATAT [CACACA_site2018] | 9.96
2 | ATTTATATTAATGGATAAATAAATGTGTACTTGATA [CACACA_negctrl_site24] | 6.42
3 | AAAAAAAAAAAACACACACACATATATATATATATA [CACACA_site732] | 9.27
4 | ATCAACAAAACATACACACACATATAGATTTATATA [CACACA_site7415] | 6.75
5 | TTATGTAAAATCGATACATGCATTAATCATTTTATA [TGCATGCA_site493] | 5.96
6 | TATGATATGTTATACACACACGTATTTATGAATTGA [CACACA_site7591] | 6.92
7 | TCATATTTCCATAGGAGTACATAAAAAAAATAATAT [XGTACX_site7601] | 6.79
8 | AACTATAAAAAAAATACACACATTACCAAAAATATA [CACACA_site1529] | 6.76
9 | AATCTGATTTGTATATGTACACAAATATTTTTATTT [XGTACX_site5295] | 6.51
10 | TATAAAAAAATATATATATATATATATATATAAATA [TGCATGCA_negctrl_site22] | 6.98
11 | TTTAATAATTATTAAAGTACAAAATAAATATTGAAT [XGTACX_site7538] | 6.7
12 | GATAAAACGTTATGCACACGTACGTGGGTATTTATA [CACACA_site4954] | 10.3
13 | AAGAAAAAAAAAAAAAATATATATATAAGAACATAT [TGCATGCA_negctrl_site131] | 6.53
14 | TTTTCAATTAATAATACACACATGTATATATCATTA [CACACA_site7539] | 6.56
15 | TGATGTTGTAACAAAAGTACACACACATTTCTATAA [XGTACX_site5837] | 6.33
16 | TAATGCATTATTAGAATACACACCATACGCATATTT [CACACA_site289] | 6.68
17 | TTTTTCTTTTGATGTTGTACATATATATTATATATA [XGTACX_site2754] | 7.02
18 | TGCTATATAATATGAGCACACATAAGATTTGGTGTT [CACACA_site8148] | 6.77
19 | ATATTTTTATTTAAACGTACATACACGTTGAAAAGA [XGTACX_site4567] | 6.47
20 | AACTGTACAATTTTTGTGCACAATAATTATTAATAT [GTGCAC_site9462] | 11
21 | AATAAAAATTCAAGTTGTACTTTTTTAAAAATACAA [XGTACX_site3949] | 6.23
22 | AATTTTTGTTACAAGATGCACTTAATTTTTCTAAAT | 7.92
23 | AATAATATATATATTACACACTAATTGTATTATATA [CACACA_site448] | 6.5
24 | CCAACATGCAGACGCACACACAAAAAAAGCATGCAT [CACACA_site74] | 6.79
25 | TTAATACCCGGACACACACACACAAAATAAAATACA [CACACA_site4296] | 6.89
